Assay results taken from PubChem BioAssay AID1468 (National Center for Advancing Translational Sciences (NCATS), 2008).
About 1,100 (0.39%) of roughly 280,000 compounds were called active. Inconclusive results, whose numbers are uncertain, are shown with a selection of clear calls. Calls come from the whole dose curve; as a rule, active = well fitted inhibition curve with a large enough effect; inconclusive = small, poorly fitted or top-dose-only effect, or effect the other way; inactive = flat fitted curve, though single readings scatter. No potency is given beside an inconclusive call; the fits are too rough.

Target: Microtubule-associated protein tau (Homo sapiens) (UniProt P10636)
Assay: qHTS for Inhibitors of Tau Fibril Formation, Fluorescence Polarization; note: nearly all actives have a fitted effect of over 55% in size
Conditions: K18 P301L tau heparin fibrillization, Alexa594 FP, 6 h; series mostly up to 57.7 µM
Summary of the method: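 Steps: dispense K18 P301L tau (15 uM plus 0.24 uM Alexa 594 tracer, final) in pH 7 sodium acetate; add compound; add heparin (20 uM final); incubate 6 hr, 37 C; add ThT (30 uM final); after 1 hr ambient, read FP.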
Potency is the fitted concentration of half-maximal effect; tags give direction and shape of the fitted curve.

UniProt P10636, sequence (P10636 whole entry, looked up): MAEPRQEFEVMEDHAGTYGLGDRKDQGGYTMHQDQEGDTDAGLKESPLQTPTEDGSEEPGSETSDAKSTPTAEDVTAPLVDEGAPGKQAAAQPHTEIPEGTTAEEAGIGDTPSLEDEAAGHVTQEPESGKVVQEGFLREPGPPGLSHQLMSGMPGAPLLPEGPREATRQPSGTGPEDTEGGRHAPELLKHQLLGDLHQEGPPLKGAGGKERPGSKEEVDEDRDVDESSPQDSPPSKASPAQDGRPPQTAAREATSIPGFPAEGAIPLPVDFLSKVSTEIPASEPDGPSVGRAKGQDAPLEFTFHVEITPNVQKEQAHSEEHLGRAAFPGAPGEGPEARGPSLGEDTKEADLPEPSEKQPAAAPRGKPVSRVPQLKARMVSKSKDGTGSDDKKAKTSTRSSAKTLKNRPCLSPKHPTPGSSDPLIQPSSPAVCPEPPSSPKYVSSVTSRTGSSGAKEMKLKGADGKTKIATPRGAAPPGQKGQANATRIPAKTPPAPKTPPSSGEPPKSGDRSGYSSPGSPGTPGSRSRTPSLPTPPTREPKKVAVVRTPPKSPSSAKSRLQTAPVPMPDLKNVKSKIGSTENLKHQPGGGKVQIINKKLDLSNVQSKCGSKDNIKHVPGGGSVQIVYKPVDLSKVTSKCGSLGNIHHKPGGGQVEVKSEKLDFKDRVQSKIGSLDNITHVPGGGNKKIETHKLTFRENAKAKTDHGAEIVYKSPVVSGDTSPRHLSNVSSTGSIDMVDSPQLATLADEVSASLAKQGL

| SMILES | Potency |
| --- | --- |
| O=c1[nH]snc1N1CCOCC1 | inconclusive [inhibitor, single point] |
| CS/C(N)=N/N=C/c1cc(Br)cc(Br)c1O | inconclusive [inhibitor, partial curve] |
| CCN(c1cccc(C)c1)S(=O)(=O)c1nnc(NC(=O)c2ccccc2Cl)s1 | inactive |
| COc1ccccc1N1CCN(C(=O)c2cc(-c3ccc(F)cc3)on2)CC1 | inconclusive [activator, single point] |
| NC(=O)CC[C@@H]1NC(=O)[C@@H]2CCCN2C(=O)c2cc([N+](=O)[O-])cc(I)c2NCCC[C@@H](C(N)=O)NC1=O | inactive |
| CCOc1cc2c3c(c1)C1(C(=O)N3C(C)(C)C=C2C)C(C#N)=C(N)Oc2cc(O)ccc21 (stereo not drawn) | inconclusive [inhibitor, single point] |
| Cn1c(=O)c2c(nc(CN3CCN(c4ccccc4)CC3)n2Cc2ccccc2F)n(C)c1=O | inconclusive [inhibitor, single point] |
| CCOc1ccc(NC(=O)c2oc3ccccc3c2NC(=O)c2c(F)cccc2F)cc1 | inconclusive [inhibitor, partial curve] |
| CCN(CC)CCCN1C=C2C(=O)C(C)(OC(=O)CCc3ccccc3)C(=O)C=C2C=C1c1ccc(C#N)cc1 (stereo not drawn) | inconclusive [inhibitor, partial curve] |
| CCOC(=O)CNCCC(=O)c1ccc(Br)cc1 | inconclusive [activator, partial curve] |
| Cc1cccc(N2CCc3c2nc2ccc(Br)cc2c3N)c1 | inconclusive [activator, full curve] |
| Cc1ccc(CC(=O)Nc2ccc(OC(F)F)c(Cl)c2)cc1C | inconclusive [inhibitor, partial curve] |
| O=C(Nc1ccc2nc(SCC(=O)N3CCc4ccccc43)sc2c1)c1cccc(Cl)c1 | inconclusive [inhibitor, partial curve] |
| CC1(C)Cc2c(c(-c3ccco3)[nH]c(=O)c2C#N)CS1 | inconclusive [inhibitor, single point] |
| CCN(CC)c1ccc(NC(=O)c2sc3nc4c(cc3c2N)CN(C)CC4)cc1 | inconclusive [activator, full curve, poor fit] |
| CCn1c(C(=O)N2CCCC(C(=O)N3CCN(c4cc(C)ccc4C)CC3)C2)cc2sccc21 (stereo not drawn) | inactive |
| O=C(CNC(=O)C1CCCCC1)OCc1cc(=O)oc2ccc3ccccc3c12 | inactive |
| C/C(=N\Nc1nc2ccccc2[nH]1)c1cc2ccccc2o1 | inconclusive [activator, single point] |
